Experimental data as given in PubChem BioAssay AID1240 (Sanford-Burnham Center for Chemical Genomics, 2008).
Out of some 50,000 compounds screened, about 800 (1.6%) showed an effect of 50% or more. The list shows a part of the results.

target: Bcl-2-like protein 10 (Homo sapiens) (UniProt Q9HD36); experiment: Phenotype converters, Bcl-B/TR3 peptide binding displacement, primary biochemical FP (AID 1240); details: GST-Bcl-B / FITC-TR3 peptide fluorescence polarization; stronger effect = higher value; compound at 3.75 mg/L;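 note: 0% = Bcl-B with tracer peptide and DMSO and 100% = tracer peptide lacking Bcl-B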
Sequence of UniProt Q9HD36 (Q9HD36 whole entry, looked up): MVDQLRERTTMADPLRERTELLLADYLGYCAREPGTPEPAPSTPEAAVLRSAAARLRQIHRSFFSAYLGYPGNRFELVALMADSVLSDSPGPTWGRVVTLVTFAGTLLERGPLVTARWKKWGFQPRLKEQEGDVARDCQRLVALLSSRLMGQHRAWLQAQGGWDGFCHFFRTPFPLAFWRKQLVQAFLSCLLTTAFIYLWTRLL

Compound	displacement
O=C(Cn1cnc2ccccc21)N=Nc1c(O)[nH]c2ccccc12	-5.3%
CCOc1ccccc1C(C1=C(O)CC(C)(C)CC1=O)C1C(=O)CC(C)(C)CC1=O (stereo unspecified)	-4.7%
CCOc1cccc(C(=O)Nc2ccc(NC(=O)c3cc4ccccc4o3)c(OC)c2)c1	19.9%
Cc1ccc(S(=O)(=O)NC(=O)NCC2CCCO2)cc1 (stereo unspecified)	-3.4%
C=CCN1C(=O)NC(=O)/C(=C\c2ccc(OCc3ccccc3Cl)c(OC)c2)C1=O	-1.6%
COc1ccc(Br)cc1-c1nc2nnc(C)n2[nH]1	-0.3%
CCCOc1cccc(C(=O)Nc2ccc(OC(F)(F)F)cc2)c1	-6.7%
Cc1ccc2nc(NC(=O)C3CC3c3ccccc3)sc2c1 (stereo unspecified)	4.7%
O=c1c2c([nH]c3ccccc13)CCCCC2	-9%
O=C(Nc1cc([N+](=O)[O-])ccc1Cl)c1cc2ccccc2o1	1.2%
CCN1C(=O)/C(=C\c2nc3ccccc3c(=O)n2C)c2ccccc21	7.3%
O=C(c1cccnc1)N1CCN(c2ccc(Cl)cc2)CC1	5.9%
O=C1c2ccc(S(=O)(=O)c3ccc4c(c3)C(=O)N(CCO)C4=O)cc2C(=O)N1CCO	1.4%
CCOC(=O)c1c(C)n(C)c2c1cc(O)c1ccccc12	-0.3%
CCC(C)c1ccc(NC(=O)c2cc(C(=O)OC)cc([N+](=O)[O-])c2)cc1 (stereo unspecified)	-5.1%
CCNc1nc(NS(=O)(=O)c2ccc(C)cc2)nc(SC)n1	2.7%
Cc1ccc(S(=O)(=O)Oc2cccc(/C=C3/SC(=S)N(Cc4ccccc4)C3=O)c2)cc1	-1.9%
Cc1ccc(NC(=O)c2ccc(-c3ccc(Cl)cc3Cl)o2)c([N+](=O)[O-])c1	-1%
C=C(C)C(=O)Oc1ccc(N2C(=O)C=CC2=O)cc1	-0.2%
CCc1nc(-c2ccccc2)nc(-c2ccccc2)c1C	3.3%
COc1cc(/C=N/N2CCN(Cc3ccc(Cl)cc3)CC2)cc(OC)c1OC(C)=O	-13.7%
CCOC(=O)C1=C(O)/C(=C/c2ccc(O)c(OC)c2)SC1=Nc1ccc([N+](=O)[O-])cc1	49.9%

Compound	displacement
COc1ccc(CC(=O)NNC(=O)c2ccc(Cl)cc2)cc1	-1.7%
CCn1c2ccccc2c2nnc(SCC(=O)Nc3nnc(C(C)C)s3)nc21	-6.7%
CCOC(=O)C1=C(C)N=C2c3ccccc3C(=O)C2C1c1ccc(Cl)cc1 (stereo unspecified)	11.1%
CCOC(=O)c1cccc(NC(=O)c2cncc(Br)c2)c1	11.1%
CCC(CC)C(=O)Nc1ccc(C)c([N+](=O)[O-])c1	1.1%
COc1ccc(S(=O)(=O)N/N=C/c2ccc[nH]2)cc1	-0.9%
Cc1cccc(NC(=S)NC(NC(=O)c2ccccc2F)C(Cl)(Cl)Cl)c1 (stereo unspecified)	-6.5%
COC(=O)C1=C(C)NC(C)=C(C(=O)OC)C1c1cn(-c2ccccc2)nc1-c1ccc(S(=O)(=O)N(C)C)cc1	9.4%
CCOc1cc(C=C2C(=O)c3ccccc3C2=O)cc(Br)c1OCc1ccccc1	11%
CC(=O)N(C1=C(N2CCCC2)C(=O)c2ccccc2C1=O)C1CCCCC1	3.4%
O=C1NC(=S)N(c2ccccc2)C(=O)/C1=C/c1cccs1	-4.6%
O=C1CC(C2CCCO2)C(=O)N1c1ccc(Cl)c(Cl)c1 (stereo unspecified)	-3.7%
O=C(Nc1cccc(Cl)c1)Nc1nnc(-c2ccc(Cl)cc2Cl)s1	8.5%
Cn1c2ccccc2c2nnc(SCC(=O)OCN3C(=O)c4ccccc4C3=O)nc21	25%
COc1ccccc1N1N=C(c2ccccc2)CC1c1ccccc1 (stereo unspecified)	9.7%
O=C(Nc1ccccc1F)c1ccc(Cl)c([N+](=O)[O-])c1	-12.6%
N/C(=N\OC(=O)Cc1ccc(-c2ccccc2)cc1)c1ccccn1	-6.6%
Cc1cc(C(F)(F)F)nn1CC(=O)Nc1sc2c(c1C(N)=O)CCC(C)C2 (stereo unspecified)	10.8%
Cc1cc(NC(=O)c2ccc(C)c([N+](=O)[O-])c2)ccc1NC(=O)c1ccco1	0.6%
NNC(=O)c1ccc(-n2c(-c3ccccc3)ccc2-c2ccccc2)cc1	10.5%
O=C(Nc1cccc(Cl)c1)c1cccc(NC(=S)Nc2ccc(F)cc2)c1	-3.1%
Cc1nc(SCC(=O)NC2CCCCC2)n[nH]1	4.7%

Compound	displacement
O=C(O)CN(c1cccc(Br)c1)S(=O)(=O)c1ccccc1	6.1%
C=CCOc1c(Cl)cc(/C=C2/C(=O)NN(c3ccc(F)cc3)C2=O)cc1OC	-0.5%
CCOC(=O)C1CCN(C(=O)c2ccccc2NC(C)=O)CC1	-11%
COc1ccc(N2C(=O)/C(=C\c3cccnc3)SC2=S)cc1	15.9%
O=C(N/N=C/c1cccc([N+](=O)[O-])c1)C1CC(=O)N(c2ccc(F)cc2)C1 (stereo unspecified)	-10.4%
Cc1cccc(OCc2nc(-c3ccc(Cl)cc3)no2)c1	9.6%
Cc1cc2nc(-c3ccc(Cl)c(NC(=O)c4ccco4)c3)oc2cc1C	-10.7%
COC(=O)c1ccc(NC(=O)CCNS(=O)(=O)c2ccc(C)cc2)cc1	-2.6%
COc1ccc(N(CC(=O)Nc2ccc(C(C)=O)cc2)S(=O)(=O)c2ccccc2)cc1Cl	1.9%
Cc1ccc(C(=O)Nc2ccc(NC(=O)c3ccccc3Cl)cc2)cc1[N+](=O)[O-]	-1.5%
O=C(CN1C(=O)c2ccc([N+](=O)[O-])cc2C1=O)Nc1ccc2ccccc2c1	-8.3%
COc1ccc(/C=C2\SC(=NCc3ccccc3)N(Cc3ccccc3)C2=O)cc1C(=O)O	78%
COc1cccc(CN2CCN(C(=O)c3cccc4ccccc34)CC2)c1	4.6%
COc1ccc(-c2csc(/C(C#N)=C\c3ccc(C)s3)n2)cc1	115%
O=C(O)C1CC=CCC1C(=O)Nc1ccc(-c2ccccc2)cc1 (stereo unspecified)	-5.8%
CC(C)=C1C2CCC1C(C(=O)Nc1cc(C)cc(C)c1)C2C(=O)O (stereo unspecified)	3.3%
Cc1ccc(N(CC(=O)NCCc2ccccc2)S(C)(=O)=O)cc1Cl	19.2%
O=[N+]([O-])c1cc([N+](=O)[O-])c2oc(-c3ccccc3)c(Br)c2c1O	41.7%
COc1cccc(C2C(C(=O)Nc3ccccc3)=C(C)N=c3s/c(=C\c4ccncc4)c(=O)n32)c1 (stereo unspecified)	9.6%
O=C(Nc1ccc(Cl)cn1)c1cc([N+](=O)[O-])ccc1Cl	-4.1%
CCCc1ccc(-c2ccc(-c3nc(-c4ccccn4)no3)cc2)cc1	2.7%
Cc1ccc(Cl)cc1NC(=O)CSc1nc2ccc(N3C(=O)c4ccccc4C3=O)cc2s1	-14.8%

Compound	displacement
CCOC(=O)C1=C(c2ccccc2)N=C2SCC(=O)N2C1c1ccc2c(c1)OCO2 (stereo unspecified)	-11.2%
O=C(O)c1cc(-c2ccc(O)cc2)nc2ccc(Br)cc12	10.4%
COc1ccc(C2CC(c3ccc(C)o3)=NN2C(C)=O)cc1 (stereo unspecified)	-1%
CCc1ccc(NC(=O)CSc2ccc(Cl)cc2)cc1	-8.1%
CC(=O)Nc1ccc(C2NC(=O)NC3=Nc4ccccc4SC(c4ccccc4)=C32)cc1 (stereo unspecified)	10.1%
O=C(Nc1ccccc1Br)c1ccc(CN2CCc3ccccc3C2)cc1	3.3%
OC(COCc1ccccc1)CN1CCN(c2ccccn2)CC1 (stereo unspecified)	8.6%
O=C(CSc1nc2ccc([N+](=O)[O-])cc2s1)NC(c1ccccc1)c1ccccc1	-7.3%
CCOC(=O)c1ccc(NC(=O)c2cc(Cl)ccc2OC)cc1	-0.8%
O=C1NC(=S)S/C1=C/c1cn(CCOc2ccc(Br)cc2)c2ccccc12	68.9%
O=C1N=C(N2CCCCCC2)S/C1=C\c1ccc(O)cc1	-26.3%
CCSc1nnc(NC(=O)c2ccc3c(c2)OCO3)s1	2.4%
CCOc1ccc(NC(=S)NC(NC(=O)c2ccccc2Cl)C(Cl)(Cl)Cl)cc1 (stereo unspecified)	-11.1%
COC(=O)c1ccc(OCC(O)Cn2nc(C)cc2C)cc1 (stereo unspecified)	-9.8%
C=CCOc1ccc(/C=C/C(=O)c2ccc(Cl)cc2)cc1	-2.1%
Cc1ccc(C(=O)Nc2ccc(S(=O)(=O)N3CCC(C)CC3)cc2)cc1	2.4%
COc1ccccc1CC(=O)N1CCN(c2ccc([N+](=O)[O-])cc2)CC1	11.9%
COC(=O)C1=C(C(=O)OC)SC2(S1)C(C(=O)OC)=C(C(=O)OC)SC1=C2c2cccc(OC)c2NC1(C)C	5.3%
O=[N+]([O-])c1ccc(N[C@@H]2OC[C@@H](O)[C@H](O)[C@@H]2O)cc1	9%
O=C(N/N=C/c1cccnc1)c1ccco1	18.4%
Cc1ccc(-n2cnc(N=CN(C)C)c2C(=O)c2ccccc2)cc1	-0.1%
COc1ccc(N2C(=O)c3ccccc3NC2c2ccc(OC)c(OC)c2)cc1 (stereo unspecified)	14.4%

Compound	displacement
S=C(c1ccc(-c2ccc(Cl)c(Cl)c2)o1)N1CCOCC1	10%
CCCCCCCCS(=O)c1sc2nc3c(cc2c1N)CCCC3 (stereo unspecified)	-6%
O=C(/C=C/c1ccc2c(c1)OCO2)Nc1c(F)c(F)c(F)c(F)c1F	-7.3%
COc1cccc(C2Nc3cc(C)c(C)cc3NC3=C2C(=O)CC(C)(C)C3)c1OC (stereo unspecified)	4%
CC1CCN(CCCCOc2ccc(Cl)cc2)CC1	-11.7%
CN(C)CCCNC(=O)c1ccc(F)cc1	-1.5%
COc1ccc(OC)c(NC(=O)C2c3ccccc3Oc3ccccc32)c1	14.1%
CC1=C(C(=O)Nc2ccccc2)C(c2cc(C)cs2)NC(=O)N1 (stereo unspecified)	-3.6%
O=C(c1ccccc1F)N(c1ccccc1)C1C=CS(=O)(=O)C1 (stereo unspecified)	-5.7%
O=C(/C=C/c1ccc(F)cc1)Nc1ccc(F)cc1	10.1%
CCOc1ccccc1NC(=O)CN(c1ccccc1OC)S(=O)(=O)c1ccccc1	-4.3%
Cc1cccc(Nc2nc(Nc3cccc(C)c3)nc(SC(=S)N3CCOCC3)n2)c1	-2.7%
O=C(Nc1ccc(Br)cc1)C1c2ccccc2Oc2ccccc21	-14.2%
CCC(C)(C)C1CCc2c(sc(NC(=O)/C=C/C(=O)O)c2C(N)=O)C1 (stereo unspecified)	2.4%
O=C(CC1Sc2ccc(C(F)(F)F)cc2NC1=O)Nc1ccc(I)cc1 (stereo unspecified)	-23.7%
O=C(Nc1ccccc1C(=O)O)c1ccc(NC(=O)C(c2ccccc2)c2ccccc2)cc1	4.8%
O=C(/C=C/Nc1ccccn1)c1ccc(Br)cc1	3%
CC1=NN(C(=O)OC(C)(C)C)C(O)(c2ccncc2)C1 (stereo unspecified)	8.1%
